Test results from a collection of fitness landscapes (doi:10.1016/j.celrep.2020.107928).
Over roughly 81,000 sequences, “one-hybrid fitness for binding NBS DNA” has its median near -0.1; the highest 2% begin near 0.36. The list shows a part of the results.

B1: Caulobacter ParB omega fusion; a variant is named by its letters at X, in order, B8GW30 (parent)
chain: MESVVVGEPGMSEGRRGLGRGLSALLGEVDAAPAQAPGEQLGGSREAPIEILQRNPDQPRRTFREEDLEDLSNSIREKGVLQPILVRPSPDTAGEYQIVAGERAWRAAQRAGLKTVPIMVRELDDLAVLEIGIIENVQRADLNVLEEALSYKVLMEKFERTQENIAQTIGKSXSHVANXMRLLXLPDEVQSYLVSGELTAXHARAIAAAADPVALAKQIIEGGLSVRETEALARKAPNLSAGKSKGGRPPRVKDTDTQALESDLSSVLGLDVSIDHRGSTGTLTITYATLEQLDDLCNRLTRGI

Variants of: B1
Experiment: one-hybrid fitness for binding NBS DNA (the Noc-binding site; scaled: cognate 1, non-cognate 0); higher = stronger binding
Conditions: with NBS DNA site
Procedure, shortened: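 Bacterial one-hybrid selection in E. coli USO rpoZ- hisB- pyrF- with a HIS3 reporter carrying the site 19 bp from the promoter, screening Caulobacter ParB libraries with four specificity codons randomised (NNS). Cells grew 48 hours at 37°C on M9-minus-histidine plus 0.1 mM IPTG and 5 mM 3-AT. Plasmids before and after selection were Illumina-sequenced, three replicate libraries pooled, and variants under 10 reads dropped. Fitness is the log change in variant-to-wild-type read ratio, rescaled to cognate 1, non-cognate 0.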

Row | Variant | one-hybrid fitness for binding NBS DNA
1 | MIPR | ≤ 0.2
2 | HSMV | ≤ 0.2
3 | TIYG | ≤ 0.2
4 | STEW | ≤ 0.2
5 | DEHN | ≤ 0.2
6 | AAKF | ≤ 0.2
7 | EIQC | ≤ 0.2
8 | LYKR | ≤ 0.2
9 | SFTP | ≤ 0.2
10 | GFGY | ≤ 0.2
11 | RSFF | ≤ 0.2
12 | SYPL | ≤ 0.2
13 | QPND | ≤ 0.2
14 | QLVW | ≤ 0.2
15 | PGRT | ≤ 0.2
16 | PHAF | ≤ 0.2
17 | LQKK | ≤ 0.2
18 | LRFH | ≤ 0.2
19 | SKSG | ≤ 0.2
20 | GCPS | ≤ 0.2
21 | SLGL | ≤ 0.2
22 | KPMP | ≤ 0.2
23 | EMLR | ≤ 0.2
24 | AFEM | ≤ 0.2

Row | Variant | one-hybrid fitness for binding NBS DNA
25 | RGRI | ≤ 0.2
26 | SDAG | ≤ 0.2
27 | PRIT | ≤ 0.2
28 | RYVP | ≤ 0.2
29 | NTGT | ≤ 0.2
30 | PNLS | ≤ 0.2
31 | LNFL | ≤ 0.2
32 | DYMG | ≤ 0.2
33 | RGKC | ≤ 0.2
34 | MCRM | ≤ 0.2
35 | HAPT | ≤ 0.2
36 | QNPS | ≤ 0.2
37 | RKCM | ≤ 0.2
38 | VSGN | ≤ 0.2
39 | CDWS | ≤ 0.2
40 | MPDT | ≤ 0.2
41 | NWVS | ≤ 0.2
42 | RAHC | ≤ 0.2
43 | CQMG | ≤ 0.2
44 | TPWY | ≤ 0.2
45 | TSCR | ≤ 0.2
46 | PAPW | ≤ 0.2
47 | GNDY | ≤ 0.2
48 | DSCS | ≤ 0.2

Row | Variant | one-hybrid fitness for binding NBS DNA
49 | GPQR | ≤ 0.2
50 | QASV | ≤ 0.2
51 | APSI | ≤ 0.2
52 | LPTE | ≤ 0.2
53 | HWMS | ≤ 0.2
54 | SLLD | ≤ 0.2
55 | AYIV | ≤ 0.2
56 | NHKS | ≤ 0.2
57 | IDMS | ≤ 0.2
58 | CVWV | ≤ 0.2
59 | KTNA | ≤ 0.2
60 | VETW | ≤ 0.2
61 | DMTV | ≤ 0.2
62 | VRIW | ≤ 0.2
63 | PMSR | ≤ 0.2
64 | FNVR | ≤ 0.2
65 | ACAL | ≤ 0.2
66 | IKTG | ≤ 0.2
67 | DCMR | ≤ 0.2
68 | WQMG | ≤ 0.2
69 | ETPF | ≤ 0.2
70 | GLLE | ≤ 0.2
71 | CHLS | ≤ 0.2
72 | VPSF | ≤ 0.2

Row | Variant | one-hybrid fitness for binding NBS DNA
73 | WCYR | ≤ 0.2
74 | TTTP | ≤ 0.2
75 | SSKS | ≤ 0.2
76 | KKMV | ≤ 0.2
77 | YNTL | ≤ 0.2
78 | PRYC | ≤ 0.2
79 | RSRG | ≤ 0.2
80 | THMS | ≤ 0.2
81 | QMYA | 0.267
82 | PSVA | ≤ 0.2
83 | GCQG | ≤ 0.2
84 | SQRC | ≤ 0.2
85 | LKLA | ≤ 0.2
86 | YCTD | ≤ 0.2
87 | STLV | ≤ 0.2
88 | RLHT | 0.437
89 | AEGI | ≤ 0.2
90 | PTTL | ≤ 0.2
91 | RTMI | ≤ 0.2
92 | WRES | ≤ 0.2
93 | QLWR | 0.319
94 | ANMV | ≤ 0.2
95 | VGEF | ≤ 0.2
96 | RDDR | ≤ 0.2

Row | Variant | one-hybrid fitness for binding NBS DNA
97 | FEMR | ≤ 0.2
98 | PRKN | ≤ 0.2
99 | RSSE | ≤ 0.2
100 | TNVV | ≤ 0.2
101 | CNQS | ≤ 0.2
102 | RQDQ | ≤ 0.2
103 | RANT | 0.496
104 | RNMM | ≤ 0.2
105 | QSLH | ≤ 0.2
106 | GEIS | ≤ 0.2
107 | RMDS | ≤ 0.2
108 | PQII | ≤ 0.2
109 | CIFG | ≤ 0.2
110 | FPKR | ≤ 0.2
111 | FHTA | ≤ 0.2
112 | RWSI | ≤ 0.2
113 | NTTE | ≤ 0.2
114 | PGCV | ≤ 0.2
115 | CIYR | ≤ 0.2
116 | HIHR | ≤ 0.2
117 | QGTV | ≤ 0.2
118 | EGPG | ≤ 0.2
119 | SVPH | ≤ 0.2
120 | SWPC | ≤ 0.2

Row | Variant | one-hybrid fitness for binding NBS DNA
121 | HLIC | ≤ 0.2
122 | RYAK | ≤ 0.2
123 | CSFP | ≤ 0.2
124 | SWVK | ≤ 0.2
125 | RFTK | ≤ 0.2
126 | RGNW | ≤ 0.2
127 | RAAY | ≤ 0.2
128 | RTHW | ≤ 0.2
129 | FGHL | ≤ 0.2
130 | FWRS | ≤ 0.2
131 | SPVF | ≤ 0.2
132 | WNKS | ≤ 0.2
133 | MVDT | ≤ 0.2
134 | PMNI | ≤ 0.2
135 | WLVT | ≤ 0.2
136 | VLMR | ≤ 0.2
137 | EKDS | ≤ 0.2
138 | AKKL | ≤ 0.2
139 | SNFS | ≤ 0.2
140 | GMYM | ≤ 0.2
141 | FSLK | ≤ 0.2
142 | TPRR | 0.276
143 | RYIG | ≤ 0.2
144 | RRGI | ≤ 0.2

Row | Variant | one-hybrid fitness for binding NBS DNA
145 | QSVT | 0.328
146 | EDIR | ≤ 0.2
147 | GRKA | ≤ 0.2
148 | WSKC | ≤ 0.2
149 | ATSP | ≤ 0.2
150 | MCTF | ≤ 0.2
151 | QMAT | 0.505
152 | DHLR | ≤ 0.2
153 | WTCC | ≤ 0.2
154 | TQSA | ≤ 0.2
155 | KSKS | ≤ 0.2
156 | EMDR | ≤ 0.2
157 | WMCS | ≤ 0.2
158 | PHQT | ≤ 0.2
159 | NEGL | ≤ 0.2
160 | LHLG | ≤ 0.2
161 | DDTG | ≤ 0.2
162 | PKHR | ≤ 0.2
163 | VNVA | ≤ 0.2
164 | LENF | ≤ 0.2
165 | PKEE | ≤ 0.2
166 | KSVF | ≤ 0.2
167 | EDAK | ≤ 0.2
168 | LQSG | ≤ 0.2

Row | Variant | one-hybrid fitness for binding NBS DNA
169 | EERL | ≤ 0.2
170 | ILPF | ≤ 0.2
171 | DSHE | ≤ 0.2
172 | PFLG | ≤ 0.2
173 | NCVS | ≤ 0.2
174 | PNSV | ≤ 0.2
175 | PETY | ≤ 0.2
176 | TPHS | ≤ 0.2
177 | YWRT | ≤ 0.2
178 | VIKV | ≤ 0.2
179 | PKGL | ≤ 0.2
180 | DTRC | ≤ 0.2
181 | MDNA | ≤ 0.2
182 | HTDN | ≤ 0.2
183 | QTPK | ≤ 0.2
184 | WTQV | ≤ 0.2
185 | ATYR | ≤ 0.2
186 | HANG | ≤ 0.2
187 | GVLA | ≤ 0.2
188 | KLTW | ≤ 0.2
189 | LGLD | ≤ 0.2
190 | QCKD | 0.337
191 | SMMG | ≤ 0.2
192 | TTGA | ≤ 0.2

Row | Variant | one-hybrid fitness for binding NBS DNA
193 | QVHM | ≤ 0.2
194 | FNNM | ≤ 0.2
195 | EVLR | ≤ 0.2
196 | YRNA | ≤ 0.2
197 | DYFR | ≤ 0.2
198 | MQAS | ≤ 0.2
199 | QFSD | ≤ 0.2
200 | AVLE | ≤ 0.2
201 | EYIL | ≤ 0.2
202 | CTTT | ≤ 0.2
203 | APMR | ≤ 0.2
204 | PKDS | ≤ 0.2
205 | TLLV | ≤ 0.2
206 | AKQM | ≤ 0.2
207 | QYEK | ≤ 0.2
208 | YMQG | ≤ 0.2
209 | LCEF | ≤ 0.2
210 | PTRH | ≤ 0.2
211 | DISG | ≤ 0.2
212 | RCSF | ≤ 0.2
213 | TFHF | ≤ 0.2
214 | YAWG | ≤ 0.2
215 | HPYR | ≤ 0.2
216 | QYGR | 0.553

Row | Variant | one-hybrid fitness for binding NBS DNA
217 | VGRT | ≤ 0.2
218 | QYKW | 0.271
219 | NQYR | ≤ 0.2
220 | IEKS | ≤ 0.2
221 | RQHL | ≤ 0.2
222 | CSIT | ≤ 0.2
223 | LCGS | ≤ 0.2
224 | KLDI | ≤ 0.2
225 | SARV | ≤ 0.2
226 | RPFD | ≤ 0.2
227 | LPFS | ≤ 0.2
228 | HYTQ | ≤ 0.2
229 | VILE | ≤ 0.2
230 | TAWW | ≤ 0.2
231 | SNIS | ≤ 0.2
232 | QARH | 0.529
233 | TMNP | ≤ 0.2
234 | PAAT | ≤ 0.2
235 | QNFR | ≤ 0.2
236 | GDTH | ≤ 0.2
237 | YANR | ≤ 0.2
238 | SNYQ | ≤ 0.2
239 | YNAC | ≤ 0.2
240 | VWNE | ≤ 0.2

Row | Variant | one-hybrid fitness for binding NBS DNA
241 | ASAQ | ≤ 0.2
242 | HPSP | ≤ 0.2
243 | SVYI | ≤ 0.2
244 | IIPP | ≤ 0.2
245 | GWIR | ≤ 0.2
246 | EVPF | ≤ 0.2
247 | ETRS | ≤ 0.2
248 | INMM | ≤ 0.2
249 | YENF | ≤ 0.2
250 | WFSR | ≤ 0.2
251 | HLAN | ≤ 0.2
252 | TQDS | ≤ 0.2
253 | LFYE | ≤ 0.2
254 | DQRH | ≤ 0.2
255 | FIMF | ≤ 0.2
256 | SHYV | ≤ 0.2
257 | RPLG | ≤ 0.2
258 | QFEG | ≤ 0.2
259 | SMAW | ≤ 0.2
260 | TIDE | ≤ 0.2
261 | TATC | ≤ 0.2
262 | SADV | ≤ 0.2
263 | CLKG | ≤ 0.2
264 | KIKM | ≤ 0.2

Row | Variant | one-hybrid fitness for binding NBS DNA
265 | SVCR | ≤ 0.2
266 | AVWI | ≤ 0.2
267 | ITAC | ≤ 0.2
268 | NRMM | ≤ 0.2
269 | LRHM | ≤ 0.2
270 | CWST | ≤ 0.2
271 | RPAY | ≤ 0.2
272 | KLQM | ≤ 0.2
273 | ALKH | ≤ 0.2
274 | RANI | ≤ 0.2
275 | QANE | ≤ 0.2
276 | QRAN | 0.39
277 | QRKT | 0.848
278 | KSPF | ≤ 0.2
279 | VGCS | ≤ 0.2
280 | CTGD | ≤ 0.2
281 | KCYW | ≤ 0.2
282 | SYSW | ≤ 0.2
283 | IPNG | ≤ 0.2
284 | QPSP | ≤ 0.2
285 | QAFS | 0.218
286 | TDAT | ≤ 0.2
287 | NPHT | ≤ 0.2
288 | YSCC | ≤ 0.2

Row | Variant | one-hybrid fitness for binding NBS DNA
289 | TYKN | ≤ 0.2
290 | VVPF | ≤ 0.2
291 | LSRD | ≤ 0.2
292 | CLKT | ≤ 0.2
293 | TRGI | ≤ 0.2
294 | FTMC | ≤ 0.2
295 | ILKM | ≤ 0.2
296 | MYTD | ≤ 0.2
297 | SLDC | ≤ 0.2
298 | ISAE | ≤ 0.2
299 | DARV | ≤ 0.2
300 | KHEE | ≤ 0.2
301 | ETLM | ≤ 0.2
302 | VWKM | ≤ 0.2
303 | CCTW | ≤ 0.2
304 | NARR | ≤ 0.2
305 | VHCG | ≤ 0.2
306 | QCRR | 1.13
